Measurements taken from PMC4336329 (PLoS ONE, 2015).
The whole screen tested about 310,000 compounds, of which about 2,200 (0.71%) showed an effect of 50% or more. Effects have a minus sign here. Some of the results follow.

These molecules were tested against human ether-à-go-go-related gene (hERG) potassium channel (human, UniProt Q12809) (assay: primary screen, population patch clamp on CHO cells stably expressing hERG).
Chain of human ether-à-go-go-related gene (hERG) potassium channel (Q12809 whole entry, looked up): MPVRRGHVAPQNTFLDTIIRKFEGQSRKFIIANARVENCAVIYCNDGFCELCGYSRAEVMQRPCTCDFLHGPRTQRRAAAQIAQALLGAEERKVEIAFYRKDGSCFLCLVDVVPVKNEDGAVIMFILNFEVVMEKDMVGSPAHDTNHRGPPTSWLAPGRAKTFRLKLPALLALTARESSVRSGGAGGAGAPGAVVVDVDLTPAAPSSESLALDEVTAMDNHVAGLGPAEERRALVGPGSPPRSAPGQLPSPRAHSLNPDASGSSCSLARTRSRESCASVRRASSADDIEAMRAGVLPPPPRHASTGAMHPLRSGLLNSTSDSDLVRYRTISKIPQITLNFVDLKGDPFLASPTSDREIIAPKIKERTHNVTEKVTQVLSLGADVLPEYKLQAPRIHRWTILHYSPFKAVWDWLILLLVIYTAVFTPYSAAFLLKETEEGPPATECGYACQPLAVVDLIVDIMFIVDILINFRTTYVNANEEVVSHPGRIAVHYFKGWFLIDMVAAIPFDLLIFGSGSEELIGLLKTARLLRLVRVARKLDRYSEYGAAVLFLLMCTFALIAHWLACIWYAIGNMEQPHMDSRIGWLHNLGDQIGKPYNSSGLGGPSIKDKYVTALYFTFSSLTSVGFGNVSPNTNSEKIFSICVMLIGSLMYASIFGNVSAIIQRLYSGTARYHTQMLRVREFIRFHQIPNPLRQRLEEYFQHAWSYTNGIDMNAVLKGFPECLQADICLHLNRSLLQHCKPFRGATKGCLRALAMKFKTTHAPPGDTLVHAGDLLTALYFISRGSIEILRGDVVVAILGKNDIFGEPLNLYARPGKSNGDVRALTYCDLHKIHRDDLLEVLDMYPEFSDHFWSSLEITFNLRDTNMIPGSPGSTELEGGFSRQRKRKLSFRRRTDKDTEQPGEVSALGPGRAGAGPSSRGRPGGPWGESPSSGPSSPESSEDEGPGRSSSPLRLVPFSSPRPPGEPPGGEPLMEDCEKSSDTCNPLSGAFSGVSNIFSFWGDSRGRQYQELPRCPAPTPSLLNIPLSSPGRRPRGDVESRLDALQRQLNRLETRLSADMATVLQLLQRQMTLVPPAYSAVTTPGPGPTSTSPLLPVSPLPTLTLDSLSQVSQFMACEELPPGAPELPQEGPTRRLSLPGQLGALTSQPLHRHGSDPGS

SMILES	hERG current change (%, negative = inhibition) at 1uM
O=C(CN1CCN(C(=O)c2ccco2)CC1)Nc1cc(Cl)ccc1Cl	-8.91%
CC(=O)Nc1ccc2nc(-c3ccco3)[nH]c2c1	4.83%
Cc1ccc(S(=O)(=O)N2CCC(C(=O)Nc3cc(C(F)(F)F)ccc3N3CCOCC3)CC2)cc1C	8.78%
COC(=O)C(/C=N/OCc1ccc([N+](=O)[O-])cc1)NC(=O)c1cccc(Cl)c1 (stereo not drawn)	5.64%
COc1cc(OC)cc(C(=O)OCC(=O)NC(c2ccccc2)c2ccccc2)c1	7.59%
O=C(c1cc2cc([N+](=O)[O-])ccc2oc1=O)N1CCOCC1	7.86%
Cc1ccc(N(CC(=O)N/N=C/c2cccs2)S(C)(=O)=O)cc1	7.64%
O=C1c2ccccc2-c2onc3c(N4CCN(CCO)CC4)cc(N4CCN(C(=O)c5ccco5)CC4)c1c23	4.31%
CCOC(=O)[C@H]1[C@H]2COc3ccc(Br)cc3[C@@H]2N2C(=O)CN(CC3CCCO3)C(=O)[C@@]12C (stereo partly drawn)	2.38%
CC(=O)c1ccc(NC(=O)C2CCN(S(=O)(=O)c3ccc4c(c3)N(C(C)=O)CCO4)CC2)cc1	12.1%
CCOC(=O)c1cnc2c(C)c(Cl)ccc2c1N1CCN(CC)CC1.Cl	10.4%
Cc1n(CC(=O)c2ccc(F)cc2)c2ccccc2[n+]1C.[Br-]	14.5%
Cc1nc(Cl)c(C(=O)NC(=O)NCc2ccccc2)c(C)c1Cl	7.92%
Cc1cc(C(=O)CSc2nc(N)cc(N)n2)c(C)n1CCc1ccc(F)cc1	-6.2%
N#Cc1ccc(C(=O)N/N=C/c2cn(CC(=O)O)c3ccccc23)c(F)c1	2.12%
O=[N+]([O-])c1cccnc1NCCNc1ncc(C(F)(F)F)cc1Cl	8.83%
CCc1c(C(=O)N/N=C/c2cn[nH]c2-c2ccc(F)cc2)csc1C	16.4%
Cc1ncsc1CCC(=O)N1CCCC(C(=O)c2cccc(Cl)c2)C1 (stereo not drawn)	15.7%
O=C1C2C3C=CC(C3)C2C(=O)N1c1ccc(Cc2ccncc2)cc1 (stereo not drawn)	0.626%
Cc1cccc(NC(=O)COC(=O)c2ccc([N+](=O)[O-])o2)c1C	4.18%
CCc1cc(OCCCCNCc2ccccc2)ccc1Cl.O=C(O)C(=O)O	3.91%
Cc1cc(OC(C)C(=O)N(Cc2ccco2)C2CCS(=O)(=O)C2)cc(C)c1Cl (stereo not drawn)	0.951%

SMILES	hERG current change (%, negative = inhibition) at 1uM
COc1ccc(NC(=S)NCCc2ccccc2)c(OC)c1	-5.28%
CCN(CC)C(=O)c1ccc(NC(=O)CSc2nnnn2-c2cc(OC)ccc2OC)cc1	5.88%
Cc1nnc2sc(SCC(=O)Nc3ccc(Cl)cc3)nn2c1=O	0.312%
COc1cccc(C2CC(c3ccccc3Cl)n3ncnc3N2)c1 (stereo not drawn)	11%
Cc1sccc1C1C(C#N)=C(N)SC(N)=C1C#N	15.4%
CCC(C)NC(=S)N(CCc1ccccc1)Cc1cc2cc(OC)c(OC)cc2[nH]c1=O (stereo not drawn)	6.75%
O=C(Nc1cccc(S(=O)(=O)Nc2ccc(Cl)cc2)c1)c1ccc(Cl)nc1	11.4%
O=C1NC(=Nc2ccc(F)cc2)CS1	15.8%
Cc1cc(/C=N/NC(N)=O)c(C)n1-c1ccc(F)cc1	3.43%
Cc1sc2nc(CC(=O)N3CCCC3)[nH]c(=O)c2c1C	2.77%
O=C(N/C=N/O)C(c1ccccc1)c1ncc(C(F)(F)F)cc1Cl (stereo not drawn)	7.83%
O=C(NCCC1CCCCN1S(=O)(=O)c1ccc(F)cc1)C(=O)NC1CC1 (stereo not drawn)	11%
COc1ccc(N2CC(C(=O)N/N=C/c3cc([N+](=O)[O-])ccc3O)CC2=O)cc1 (stereo not drawn)	5.91%
CCCn1c(N)c(N(CCOC)C(=O)/C=C/c2cccc(Cl)c2)c(=O)[nH]c1=O	24.8%
CCCSc1nc2c(cnn2-c2ccc(Cl)cc2)c(=O)[nH]1	8.11%
CCN1C(=O)c2ccccc2S(=O)c2ccc(C(=O)N3CCCC3)cc21 (stereo not drawn)	6.27%
O=C(CN(c1ccccc1)S(=O)(=O)c1ccc(F)cc1)NCc1cccs1	10.3%
O=C1/C(=C/c2cccnc2)N2CCC1CC2	20.1%
O=C(COC(=O)C1CCC1)c1c[nH]c2ccccc12	12.8%
COc1cc(O)c(C(CCN2CCCC2)c2ccc3c(c2)OCO3)c(OC)c1 (stereo not drawn)	-41.5%
Cc1cccc(/C=N/NC(=O)NC2CCCCC2)c1	11.8%
CC1=NN(C(C#N)c2ccccc2)C(c2ccccc2)C1 (stereo not drawn)	8.25%

SMILES	hERG current change (%, negative = inhibition) at 1uM
COc1ccc(CN2CCNC(=O)C2CC(=O)NC2CCCCCC2)cc1C (stereo not drawn)	2.65%
CN(C(=O)CSc1nnc(-c2n[nH]c3ccccc23)o1)c1ccccc1	11.7%
CCCCCCc1nc2ccccc2c(=O)n1N	7.3%
Cc1ccc(CC(=O)Nc2ccc(C(=O)N3CCOCC3)cc2)cc1	-10.2%
O=C(NC(=S)Nc1ccccc1O)c1ccc(Cl)cc1Cl	16.5%
CCN(CC)S(=O)(=O)c1ccc2c(c1)N(CC(=O)Nc1ccc(NC(C)=O)cc1)C(=O)CO2	10.6%
O=c1c2ccccc2ncn1CCCCOc1ccc(Br)cc1	5.19%
COCCNC(=S)N(Cc1cc2cc(C)ccc2n2nnnc12)C1CCCC1	13.4%
Cc1ccc(NC(=O)CNS(=O)(=O)c2cccs2)cc1F	-7.86%
CN1CCN(S(=O)(=O)c2ccc(N3CCN(c4ccccc4Cl)CC3)nc2)CC1	12.5%
O=C1NC(=Nc2ccccc2Cl)S/C1=C\c1ccc(C(=O)O)cc1	3.44%
CC(Oc1ccc(Cl)cc1)/C(N)=N/O.Cl (stereo not drawn)	9.07%
Cn1c(CCN2CCN(c3ccc(F)cc3)CC2)nc2cc(NC(=O)c3ccco3)ccc21	-27.9%
O=C1CC(N(CCc2ccccc2)C(=S)Nc2cc(Cl)ccc2Cl)C(=O)N1c1c(Cl)cccc1Cl (stereo not drawn)	6.08%
O=C(NCCCN1CCCC1=O)c1cccc(S(=O)(=O)NCc2ccccc2)c1	4.73%
CCOC(=O)N1CCN(C(=O)CSCc2ccc(C)cc2)CC1	0.197%
O=C(NCCc1nnc2ccc(NCCCN3CCOCC3)nn12)c1ccccc1	12%
OC(c1cccs1)(c1cccs1)C1C[N+]2(CF)CCC1CC2.[Cl-] (stereo not drawn)	6.78%
Nc1nonc1-c1nc2ccccc2n1Cc1ccccc1	0.474%
COc1ccc(C(=O)NCCN=C2NS(=O)(=O)c3ccccc32)cc1	12.8%
Cn1cc(C(=O)N2CCN(c3ccccc3)CC2)c(=O)c2cc(S(=O)(=O)N3CCCC3)ccc21	20.3%
COC(=O)CNC(=O)CSc1ccccn1	5.64%

SMILES	hERG current change (%, negative = inhibition) at 1uM
O=C(c1ccc(Cl)cc1)N1CCN(c2ccc([N+](=O)[O-])c(NCc3cccnc3)c2)CC1	5.11%
O=C(O)CCS(=O)(=O)Cc1cccc(Cl)c1	0.844%
O=C(NCCO)C(=O)c1c(-c2ccc(Cl)cc2)cc2ccccn12	5.27%
COc1cc(COCC(O)CN2CCN(Cc3ccccc3)CC2)cc(OC)c1OC.Cl (stereo not drawn)	-8.78%
C=CCn1c(CNC(=O)c2ccco2)nnc1SCC(=O)c1ccc(F)cc1	8.56%
O=S(=O)(Cc1cc(Cl)nc(-c2ccncc2)n1)c1ccccc1	3.95%
Fc1ccccc1NC(=S)NCc1ccccc1	3.72%
CS(=O)(=O)N(Cc1ccc(C(=O)NN=C2CCCC2)cc1)c1ccccc1	8.63%
O=C(CN1C(=O)c2ccccc2C1=O)Nc1sc2c(c1C(=O)NCc1ccco1)CCCC2	19.2%
CC1(Cc2ccc3c(c2)OCO3)NC(=O)NC1=O (stereo not drawn)	12.8%
COc1cccc2c(Nc3ccccc3C)cc(C)nc12.Cl	-2.86%
Cc1cc(NS(=O)(=O)c2ccc(NC(=O)/C=C/c3ccccc3)cc2)no1	11.7%
C/C(=N\NC(=O)CC1(C)OCCO1)c1cccs1	11.1%
CC(=O)N1CN(Cc2ccccn2)Cc2c1sc1c2CCCC1	1.45%
Cc1cccc(C(=O)Nc2nnc(-c3ccncc3)o2)c1	3.55%
O=C(NCc1nnnn1-c1ccc(Cl)cc1)c1ccc(Br)o1	2.45%
CCOC(=O)c1cnc(SCC(=O)Nc2cccc(OC)c2)nc1N	2.27%
CCOc1ccc(NC(=S)N2CCCN(Cc3cccc(Cl)c3)C2)cc1	6.77%
Cn1cnnc1SCC(=O)c1cc2ccccc2o1	5.73%
COc1ccc(Nc2nnc(SCc3cc([N+](=O)[O-])cc4c3OCOC4)s2)cc1	29.5%
Br.N=c1n(CC(=O)c2ccc([N+](=O)[O-])cc2)c2ccccc2n1Cc1ccc(Cl)cc1	3.8%
